Results as given in article PMC7819943, “Rice protein-binding microarrays: a tool to detect cis-acting elements near promoter regions in rice”.
Some of the results follow.

target: T1, OsWOX13 (Oryza sativa, UniProt Q5QMM3 1-267); assay: protein-binding microarray (RPBM); PBS, 2% BSA, 51.3 ng/ul salmon testes DNA, 50 uM zinc acetate, 200 nM TF, 25 C, 1 h; high values mean tight binding; settings: protein: recombinant; tags: N-terminal polyhistidine and DsRed monomer fusion (pET32a); label: CyDye5-dUTP incorporated in the synthesized complementary strand; 3' TTTTT single-stranded linker to array surface; dsDNA, one strand shown
T1 sequence: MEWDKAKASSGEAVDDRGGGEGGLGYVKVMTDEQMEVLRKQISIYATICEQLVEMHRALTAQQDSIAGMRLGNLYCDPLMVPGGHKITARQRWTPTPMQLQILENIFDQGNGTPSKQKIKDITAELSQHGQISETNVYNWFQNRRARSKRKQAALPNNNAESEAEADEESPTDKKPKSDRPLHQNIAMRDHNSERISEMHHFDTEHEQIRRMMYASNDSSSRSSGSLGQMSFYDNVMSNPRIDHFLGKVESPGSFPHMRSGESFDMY
How it was run: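 The binding signal for each feature is its fluorescence intensity in arbitrary units. An Axon 4000B scanner was used to read a custom Agilent array that had been made double-stranded with Cy5-dUTP primer extension, blocked with 2% BSA, incubated at 25 °C for 1 h with 200 nM protein in PBS, 2% BSA, salmon testes DNA and 50 µM zinc acetate, and washed. The protein was an N-terminal polyhistidine–DsRed transcription factor fusion from E. coli BL21-CodonPlus, purified on Ni–NTA.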

Sequence	binding signal
TCGACTTCTGATTGATGTCAGTAATGGTGTACCAGTGCTGCGGAGTCACCTAGTGCAG	41200 fluorescence intensity (a.u.)
TCGATCCATTTGGCCATTAATTACAGCTGGGATGGATAATCGGAGTCACCTAGTGCAG	4190 fluorescence intensity (a.u.)
ATGATGATTGGTTGGTTACGGGCATGTTCAGATTGTAGCCCGGAGTCACCTAGTGCAG	54900 fluorescence intensity (a.u.)
CCATGATGATGAGTCATTTTAACAGTCTGCAAGTACTAAACGGAGTCACCTAGTGCAG	8500 fluorescence intensity (a.u.)
GTGACTATTCCAATTAGCTACTATCAATGATGTGTATGGACGGAGTCACCTAGTGCAG	23100 fluorescence intensity (a.u.)
GGTTTGATTGGTTGGAAACAGAGGGGTTCTACTGCTGCGACGGAGTCACCTAGTGCAG	55700 fluorescence intensity (a.u.)
TAAATAATTTATGTTTGATATCTTAAAACAGTGCGTGTTACGGAGTCACCTAGTGCAG	16600 fluorescence intensity (a.u.)
AGATTTAATTATAACGAATTCAATGGTGTGATCGAATCGCCGGAGTCACCTAGTGCAG	8330 fluorescence intensity (a.u.)
TTTGGTGATTTGAAAACCATCTTTTATGCACTGGTTAGATCGGAGTCACCTAGTGCAG	11500 fluorescence intensity (a.u.)
TTGGTAATTTATTTAATAAGTTATAGTTATATGAATGGTCCGGAGTCACCTAGTGCAG	24500 fluorescence intensity (a.u.)
CCAGTAATCAAAGTTAACATAACTACTATTAGAATGTACTCGGAGTCACCTAGTGCAG	11100 fluorescence intensity (a.u.)
GCATAAACATATAAATTGAAATTCGTCTTCTACAAGTTGTCGGAGTCACCTAGTGCAG	23300 fluorescence intensity (a.u.)
AGGTCAATCAAAACCCGCCGATCGTACTAACCGTGAATTACGGAGTCACCTAGTGCAG	7850 fluorescence intensity (a.u.)
GTGGATGCTATTTTAATTTAATTATTATTATACGGTTTAGCGGAGTCACCTAGTGCAG	6640 fluorescence intensity (a.u.)
GTTAATGTTAATGGGTCTCGTGCAGTGAATGCAACTCTGGCGGAGTCACCTAGTGCAG	4610 fluorescence intensity (a.u.)
ACTTAACTTATGATATAAATGACCTGTACAATTTCATCGACGGAGTCACCTAGTGCAG	8670 fluorescence intensity (a.u.)
CCAAACACTTCCATCCAATCATCCAAAATGTAACAAAGAACGGAGTCACCTAGTGCAG	3650 fluorescence intensity (a.u.)
TCCTTTATTATCTGTAATTGTAAAATCTTCAGATGAACACCGGAGTCACCTAGTGCAG	6210 fluorescence intensity (a.u.)
CCTGATAATAAGGATCAATCAGAGGAAGAAGAGCCTATCACGGAGTCACCTAGTGCAG	16200 fluorescence intensity (a.u.)
ACCACTAAATATTCTTAAATGATTATATTAAAATGAGCATCGGAGTCACCTAGTGCAG	8360 fluorescence intensity (a.u.)
TAAGGTGCAGATTGATTTGCCATCCCAGAGCAGCAGCTTGCGGAGTCACCTAGTGCAG	29500 fluorescence intensity (a.u.)

Sequence	binding signal
TCCGTCTCTCACCTTCAATCAAACTACAGAAATCTGAACCCGGAGTCACCTAGTGCAG	7900 fluorescence intensity (a.u.)
ATCTGTACAGTTTGTGACTAATTTGCAAGACGAATCTTTTCGGAGTCACCTAGTGCAG	6130 fluorescence intensity (a.u.)
GCCATCAATCATTAACAAAACCAAACCCACACCCAGAAATCGGAGTCACCTAGTGCAG	15900 fluorescence intensity (a.u.)
AAGACGACAATGATTTTCCTTCTCACTCGTCATCCCTTGTCGGAGTCACCTAGTGCAG	5190 fluorescence intensity (a.u.)
CTATACAATCACGGGAATGTTGCAGCATCTGCTGCTGCCACGGAGTCACCTAGTGCAG	5390 fluorescence intensity (a.u.)
TGGAAATTGATGGAGGATGATCTGCAATTAGAAAGAAGAACGGAGTCACCTAGTGCAG	29700 fluorescence intensity (a.u.)
CGAATTTTATATTGGTCAATCAAACTCATACGGAGAAATACGGAGTCACCTAGTGCAG	6510 fluorescence intensity (a.u.)
GTCGCTGTTCTAAATGATTTCCATTACGAGTATTTACGAGCGGAGTCACCTAGTGCAG	4960 fluorescence intensity (a.u.)
TTTTATAGTCATTGATAGACAAAATTATATAAGATTATCGCGGAGTCACCTAGTGCAG	15400 fluorescence intensity (a.u.)
TTTAAATATAGACTGTTATTATTGTTTAGTATTGCGTTATCGGAGTCACCTAGTGCAG	7200 fluorescence intensity (a.u.)
GCCTGACACGATGGGTAATTAAATAGTTATGCATGTCCCTCGGAGTCACCTAGTGCAG	15200 fluorescence intensity (a.u.)
ATGGGATTGCTCATCATGTTTTGGCTTCCGGCTGGCTAACCGGAGTCACCTAGTGCAG	14000 fluorescence intensity (a.u.)
AAAATGTTCAATAAACTGAATACAGATTGATACACTCACCCGGAGTCACCTAGTGCAG	17700 fluorescence intensity (a.u.)
ATATTGATTGCATAAAGAAAGTTCGGTCCTGTTCACTTTGCGGAGTCACCTAGTGCAG	39900 fluorescence intensity (a.u.)
GACTAATTCACATAAACAAATCCATCATCTTTAATCCAAACGGAGTCACCTAGTGCAG	3380 fluorescence intensity (a.u.)
CTTGTTAATTGTGAAACTTCGGTCAAAATATATGGTCTAACGGAGTCACCTAGTGCAG	9990 fluorescence intensity (a.u.)
TTTGATGATAAACGATAAAATAAACAAAATTTATACATATCGGAGTCACCTAGTGCAG	4050 fluorescence intensity (a.u.)
GGGAGATTTGTAGTGCCGTGATAATTATGATGCCGCCAAACGGAGTCACCTAGTGCAG	8610 fluorescence intensity (a.u.)
TCTAAAATGAATGGGTGAAATTGGCGCCAAGTTATCTGCTCGGAGTCACCTAGTGCAG	8620 fluorescence intensity (a.u.)
ATTTATATGTCTAATTAATTAGGTTGTGTTTCTATTTCAACGGAGTCACCTAGTGCAG	27300 fluorescence intensity (a.u.)
AGGAAATTTTGCGTTTAGCCATCAATTGATCTATTCATGGCGGAGTCACCTAGTGCAG	3870 fluorescence intensity (a.u.)
